Reference: article PMC4336329 (PLoS ONE, 2015)
Out of some 310,000 compounds screened, about 2,200 (0.71%) showed an effect of 50% or more. Effects have a minus sign here. The list shows a part of the results.

target: human ether-à-go-go-related gene (hERG) potassium channel (human, UniProt Q12809); assay: primary screen, population patch clamp on CHO cells stably expressing hERG
Sequence (Q12809 whole entry, looked up): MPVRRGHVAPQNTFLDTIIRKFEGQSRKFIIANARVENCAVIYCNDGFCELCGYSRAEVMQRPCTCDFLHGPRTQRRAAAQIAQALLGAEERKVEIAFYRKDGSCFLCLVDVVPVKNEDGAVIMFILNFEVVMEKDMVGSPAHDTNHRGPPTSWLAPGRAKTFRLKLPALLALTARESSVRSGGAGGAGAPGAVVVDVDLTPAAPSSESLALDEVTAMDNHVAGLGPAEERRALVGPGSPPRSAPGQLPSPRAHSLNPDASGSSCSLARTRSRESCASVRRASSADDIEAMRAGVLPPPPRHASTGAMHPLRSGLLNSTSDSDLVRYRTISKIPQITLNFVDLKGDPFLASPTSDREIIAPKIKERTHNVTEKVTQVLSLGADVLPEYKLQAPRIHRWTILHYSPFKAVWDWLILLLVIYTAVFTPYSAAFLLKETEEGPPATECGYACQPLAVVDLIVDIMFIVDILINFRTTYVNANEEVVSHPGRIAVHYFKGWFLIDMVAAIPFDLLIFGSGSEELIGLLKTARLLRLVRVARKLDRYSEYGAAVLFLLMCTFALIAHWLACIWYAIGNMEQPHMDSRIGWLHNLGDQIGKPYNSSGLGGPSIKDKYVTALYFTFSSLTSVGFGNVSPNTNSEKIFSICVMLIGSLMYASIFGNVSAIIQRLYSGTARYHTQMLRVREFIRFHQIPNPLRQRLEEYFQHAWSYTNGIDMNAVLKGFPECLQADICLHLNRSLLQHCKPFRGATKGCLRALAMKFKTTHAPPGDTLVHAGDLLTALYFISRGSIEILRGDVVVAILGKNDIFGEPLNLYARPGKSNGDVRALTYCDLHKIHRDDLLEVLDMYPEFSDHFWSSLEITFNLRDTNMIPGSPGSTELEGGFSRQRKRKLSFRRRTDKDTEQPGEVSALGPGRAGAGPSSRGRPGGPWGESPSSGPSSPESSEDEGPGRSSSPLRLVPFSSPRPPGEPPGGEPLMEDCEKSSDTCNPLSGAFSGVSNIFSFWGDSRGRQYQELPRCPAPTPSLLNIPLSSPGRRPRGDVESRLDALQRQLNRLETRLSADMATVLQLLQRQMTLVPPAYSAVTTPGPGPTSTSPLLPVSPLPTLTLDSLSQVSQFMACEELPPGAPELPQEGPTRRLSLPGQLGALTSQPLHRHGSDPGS

Point of comparison: `Cc1ccc(O)c(-c2[nH]ncc2C(=O)c2ccc(Br)cc2)c1`, “hERG current change (%, negative = inhibition) at 1uM” value 8.94%. Against it:
- NS(=O)(=O)c1cccc(NC(=O)c2ccno2)c1 — higher, 13.4%
- CCOC(=O)C1CCN(C(=O)CN(C)S(=O)(=O)c2ccc3c(c2)c(=O)n(C)c(=O)n3C)CC1 — higher, 11.2%
- O=C(Nc1ccccc1)c1ccc(CN2CCc3ccccc3C2)cc1 — higher, 16.7%
- CCc1ccc(CNC(=O)CCC(=O)N2Cc3cccc(OC)c3Oc3ncccc32)cc1 — lower, -46.8%
- CC(=O)c1ccc(NC(=S)NC(=O)CC(C)C)cc1 — higher, 14%
- CC(=O)O.O=c1/c(=C/c2ccc(O)cc2)sc2n1CCCN=2 — lower, -6.58%
- Cc1nc(SCC(=O)Nc2ccccc2C(F)(F)F)c(C#N)c(C)c1CC(=O)c1ccc(Br)cc1 — higher, 22.1%
- O=C(NCCn1cc(SCc2ccc(F)cc2)c2ccccc21)c1c(F)cccc1F — higher, 11.2%
- CN(C)c1nc(-c2ccccc2)nnc1C(F)(F)F — lower, 3.22%
- COc1ccccc1-c1oc2ccccc2c1C#CC(C)(C)O — higher, 16.5%
- CCOC(=O)c1nn(-c2ccccc2)c(=O)cc1OCC(=O)Nc1cccc(OC)c1 — lower, 7.64%
- CCCOc1ccc(N2CC(C(=O)Nc3ccccc3C(=O)NC)CC2=O)cc1 (stereo not shown) — lower, -56.5%
- O=C(NCC(=O)N(Cc1ccccc1)C(C(=O)NC1CCCC1)c1ccco1)c1ccco1 (stereo not shown) — lower, -7.02%
- Cc1noc(C)c1CCC(=O)N1CCCC(CCC(=O)NCc2ccccc2F)C1 (stereo not shown) — higher, 10.9%
- CCCCc1c(O)nc(SCC(=O)c2ccccc2)n(-c2ccccc2)c1=O — higher, 12.7%
- CC(=O)c1cccc(N(CC(=O)N2CCCCC2)S(C)(=O)=O)c1 — lower, -1.34%
- COc1ccccc1CNC(=O)CS(=O)Cc1nc(-c2ccc(OC)c(OC)c2)oc1C (stereo not shown) — lower, 1.79%
- COCCSc1nnc(NC(=O)C2CC(=O)N(c3ccc(OC)cc3)C2)s1 (stereo not shown) — higher, 11.8%
- COc1ccc(/C=N/NC(=O)c2[nH]c3ccc(C)cc3c2-c2ccccc2)c(C(=O)O)c1OC — higher, 16.1%
- COc1ccc(OC)c(S(=O)(=O)N2CCN(C(=O)c3ccco3)CC2)c1 — higher, 19.1%
- Nc1ccc(C(=O)Nc2nc3ccccc3s2)cc1 — higher, 16.8%
- Cc1cc(-c2nnc(CCC(=O)N(CC3CC3)CC3CCCO3)o2)no1 (stereo not shown) — lower, 7.76%
- O=C(OCC(=O)N1CCOCC1)c1cc(F)c(F)cc1Cl — lower, 4.86%
- Cc1nc2cc3ccccc3cc2c(=O)[nH]1 — lower, -0.473%
- Cc1cc(C)nc(SCC(=O)Nc2ncccn2)n1 — higher, 14.4%
- Clc1ccc(-c2csc(NNC3=NCCCCC3)n2)cc1 — lower, 7.14%
- CN1CCCN(C(=O)/C=C/c2ccc(F)cc2)CC1 — lower, -5.11%
- O=S(=O)(c1ccc(NC(=S)N2CCN(c3ccc(O)cc3)CC2)cc1)N1CCOCC1 — higher, 13.2%
- CCN(CC)CCC(O)(c1ccccc1)C1CCCCC1 (stereo not shown) — lower, 7.62%
- C[C@@H](C(=O)Nc1ccc2ccccc2c1)[C@H]1C[C@]1(C)[C@H](NS(=O)(=O)c1ccc(-c2ccccc2)cc1)c1ccccc1 — lower, -8.41%
- Cc1cc(C)cc(-n2nnnc2SCC(=O)Nc2cccc(NC(=O)c3ccco3)c2)c1 — lower, 6.67%
- COc1ccc(OC)c(NC(=O)CN2C(=O)NC(C)(c3ccc4c(c3)OCCO4)C2=O)c1 (stereo not shown) — lower, 6.93%
- Cc1ccc(OCC(=O)N2CCOCC2)c([N+](=O)[O-])n1 — higher, 18.7%
- O=C(N/N=C/c1sc(N2CCOCC2)nc1-c1ccccc1)c1cccc(S(=O)(=O)N2CCCC2)c1 — higher, 14.1%
- C[C@H](NC(=O)c1nc[nH]c1C(=O)N(C)Cc1ccccc1)C(=O)OC(C)(C)C — lower, 4.69%
- O=C(O)c1cc(NS(=O)(=O)c2ccc(NCc3ccccc3)c([N+](=O)[O-])c2)cc(C(=O)O)c1 — higher, 13.6%
- COc1ccc(/C(O)=C/c2nc3ccccc3n(-c3ccccc3)c2=O)cc1 — higher, 10.1%
- CCCCN(C(=O)C(C)N1C(=O)c2ccccc2C1=O)c1c(N)n(CC(C)C)c(=O)[nH]c1=O (stereo not shown) — lower, 8.92%
- O=C1C(=O)c2ccccc2-c2ccccc21 — higher, 9.65%
- O=C(COC(=O)c1cccnc1Cl)Nc1ccc2c(c1)OCCO2 — lower, -3.7%
- COc1ccc(CN(C)C(=O)Cn2ccc(N)nc2=O)cc1OC — higher, 20.7%
- CCN(c1ccccc1)S(=O)(=O)c1ccc(C(=O)NCCCN2CCOCC2)cc1 — lower, 5.57%
